Test results from the supplement of paper PMC12217912.
The other results are listed elsewhere or left out. Sequences were assembled here from the parent chain. Inactive controls read about 0.05.

B1: TEV protease; numbered along this chain (parent)
chain: MGESLFKGPRDYNPISSSICHLTNESDGHTTSLYGIGFGPFIITNKHLFRRNNGTLVVQSLHGVFKVKDTTTLQQHLVDGRDMIIIRMPKDFPPFPQKLKFREPQREERICLVTTNFQTKSMSSMVSDTSCTFPSGDGIFWKHWIQTKDGQCGSPLVSTRDGFIVGIHSASNFTNTNNYFTSVPKNFMELLTNQEAQQWVSGWRLNADSVLWGGHKVFMVKPEEPFQPVKEATQL

Variants of: B1
Assay: raw area under fraction-flipped curve 0-4 h after induction (AUC4h, not background-subtracted), DNA-recorder readout of cleavage of the substrate (dimensionless); higher = more cleavage of the substrate by the protease variant
Conditions: temperature: 34 °C; time window: 0-4 h after rhamnose induction
Description: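 In vivo DNA recorder in E. coli TOP10(DE3) ΔrhaA at 34 °C. Each TEVp single-site mutant (parent TEVp 0) is paired with a single-site variant of the 7-mer TEVs (canonical ENLYFQ|S). The substrate sits between flexible linkers in a Bxb1-sfGFP-TEVs-SsrA fusion, so cleavage stabilises Bxb1 and speeds flipping of a recombination array, read by NGS. The value is the raw area under the fraction-flipped curve over 0-4 h after rhamnose induction (AUC4h), with ≥20 reads per time point. It is not background-subtracted; inactive controls average about 0.047.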
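Further: Bxb1 expression induced with 0.2% (w/v) L-rhamnose at OD600 near 0.5, cultures sampled hourly, flipped fraction per protease–substrate barcode pair counted by paired-end Illumina sequencing.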

Variant	area with substrate ENLYFQD	area with substrate ENLYFQH	area with substrate ENLYFQK	area with substrate ENLYFQL	area with substrate ENLYFQN	area with substrate ENLYFQS	area with substrate ENLYFQW	area with substrate ENLYFQI	area with substrate ENLYFQM	area with substrate ENLYFQP
V78I	0.0599	0.087	0.0706	0.0293	0.119	0.107	0.0705	–	–	–
K148L	0.0752	0.0725	0.0719	–	0.0868	0.102	–	0.0406	0.0745	0.0579
R106N	–	0.0877	0.0654	0.0435	–	0.0959	–	0.0515	0.0704	–
M88L	–	0.0851	0.0752	–	–	0.101	0.0642	0.0614	–	0.068
V58M	–	–	–	0.0399	0.0606	0.102	0.0707	0.0532	–	–
V58D	–	–	0.0412	–	–	0.0456	–	–	0.0353	0.0486
D137S	–	–	0.0477	0.0686	–	0.0925	0.0613	–	–	0.0563
D82M	0.0824	–	–	–	0.0539	0.0526	0.0513	0.0406	–	–
Q75M	0.0737	0.1	0.0668	–	–	0.112	0.0561	–	–	0.0583
R81P	–	–	0.0553	–	–	0.083	–	–	–	–
P222L	–	0.0638	0.0673	–	0.0622	0.0878	–	–	–	–
P222T	0.0916	–	–	0.0733	–	0.0969	–	0.0618	0.0779	–
N116F	0.074	–	0.0371	0.0561	–	0.0944	–	0.078	–	0.0518
F218I	0.0651	–	0.0695	0.0569	–	0.0906	0.0717	–	–	–
W212S	–	–	0.0728	0.0319	0.0696	0.0829	–	0.0716	–	0.0566
V200D	0.0523	–	–	0.0505	–	0.0716	–	–	–	–
T129D	0.0585	–	–	–	0.0439	0.102	–	0.0592	0.0811	0.0615
T233Y	0.0721	0.0694	–	0.0549	0.0536	0.0897	0.0684	–	0.0844	–
T233W	–	–	–	–	0.0689	0.0925	–	–	0.109	0.0527
T233P	–	–	–	0.086	0.0783	0.104	0.0702	0.0527	0.0778	–

Same assay, conditions: temperature: 34 °C; time window: 0-4 h after rhamnose induction

Variant	area with substrate ENLYFQQ	area with substrate ENLYFQT	area with substrate ENLYFQV	area with substrate ENLYFQG	area with substrate ENLYFQR	area with substrate ENLYFQY	area with substrate ENLYFQF	area with substrate ENLYFQE	area with substrate ENLYFQC
K148L	0.0644	0.0662	0.0614	–	–	–	–	–	–
R106N	0.0584	–	0.064	0.0809	–	–	–	–	–
M88L	–	–	–	0.0906	0.0635	0.0798	–	–	–
V58M	–	0.0528	–	0.0921	–	–	–	–	–
V58D	–	0.0423	–	0.0301	0.0416	–	–	–	–
D137S	–	0.0518	0.0611	0.0932	0.0512	0.073	–	–	–
D82M	–	–	0.0544	–	0.0594	0.0493	–	–	–
Q75M	–	0.0564	–	–	0.0543	–	0.0605	–	–
R81P	–	–	0.0517	–	–	–	–	0.0471	–
P222L	–	–	0.066	–	–	–	–	–	0.0848
P222T	–	0.0757	–	–	0.0728	–	0.0704	–	0.0959
N116F	–	0.0715	–	–	–	–	–	–	–
F218I	–	0.0538	–	–	0.0476	0.0592	–	–	–
W212S	–	0.0566	–	–	0.0615	–	–	0.0958	–
V200D	–	0.0839	0.063	–	–	0.058	–	–	–
T129D	–	0.0661	0.0644	–	–	0.0842	0.0946	–	–
T233Y	–	0.0753	–	–	–	–	–	–	0.103
T233W	–	–	0.0562	–	–	0.0751	0.0746	–	–
T233P	–	–	–	0.0678	–	–	–	–	0.161
